Results taken from the supplement of paper PMC11060735.
The whole screen tested about 1,800 compounds, of which about 50 (3%) showed activity. Some of the results follow.

tested on: mouse p16Ink4a+/- lung fibroblasts (INKBRITE, bleomycin-injured); test: percentage of GFP+ (p16Ink4a+) fibroblasts among all cells in well; higher = less depletion of p16Ink4a+ cells, active = 20 or less; details: 1 µM; 3 days
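Further: fibroblasts sorted 14 days after bleomycin, GFP+ and GFP− mixed 1:1 in 384-well plates (GFP− as in-well control), imaged after Hoechst and NucView530 staining, reference wells lacked compound.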

SMILES	percentage of GFP+
CC(=O)N[C@H]1[C@H]([C@H](O)[C@H](O)CO)OC(C(=O)O)=C[C@@H]1NC(=N)N [Zanamivir]	inactive: 53.1%
Cc1ccc(CNc2ncnc3ccc(-c4ccc(CO)o4)cc23)o1	inactive: 50.9%
[NH2][Pt]([NH2])([Cl])[Cl] [Cisplatin]	inactive: 42.1%
CC1(C)O[C@@H]2C[C@H]3[C@@H]4CCC5=CC(=O)C=C[C@]5(C)[C@@]4(F)[C@@H](O)C[C@]3(C)[C@]2(C(=O)CO)O1 [Triamcinolone Acetonide]	inactive: 34.4%
COc1cc2nccc(Oc3ccc(NC(=O)Nc4ccc(F)cc4F)c(F)c3)c2cc1OC	inactive: 45.2%
CC[C@H]1OC(=O)[C@H](C)[C@@H](O[C@H]2C[C@@](C)(OC)[C@@H](O)[C@H](C)O2)[C@H](C)[C@@H](O[C@H]2O[C@H](C)C[C@H](N(C)C)[C@H]2O)[C@](C)(O)C[C@@H](C)CN(C)[C@H](C)[C@@H](O)[C@]1(C)O [Azithromycin]	inactive: 49.7%
O=C1C(O)=C(O)O[C@@H]1[C@@H](O)CO [Vitamin C]	inactive: 41.1%
COc1cc2c(cc1OC)-c1cc3ccc(OC)c(OC)c3c[n+]1CC2 [Palmatine]	inactive: 45.3%
NC(=O)N1CCC(CC(=O)N2CCC([C@H]3c4ncc(Br)cc4CCc4cc(Cl)cc(Br)c43)CC2)CC1 [Lonafarnib]	inactive: 47.5%
CC(C[N+](C)(C)C)OC(N)=O (stereo not drawn) [Bethanechol]	inactive: 43.5%
CC1(C)CNc2cc(NC(=O)c3cccnc3NCc3ccncc3)ccc21 [Motesanib Diphosphate]	inactive: 25.1%
O=S(=O)(O)Oc1ccc(C(c2ccc(OS(=O)(=O)O)cc2)c2ccccn2)cc1 [Picosulfuric acid]	inactive: 48.4%
OC[C@H]1O[C@@H](OCCc2ccc(O)cc2)[C@H](O)[C@@H](O)[C@@H]1O [Salidroside]	inactive: 36.3%
COC1=C2C[C@@H](C)C[C@H](OC)[C@H](O)[C@@H](C)/C=C(\C)[C@H](OC(N)=O)[C@@H](OC)/C=C/C=C(\C)C(=O)/N=C(/C=C1O)C2=O [Geldanamycin]	active: 13.5%
Cc1cccc(Nc2cc(Cl)nc(SCC(=O)O)n2)c1C [Pirinixic Acid]	inactive: 41%
CCc1cncnc1N1CCN(Cc2nc3cc(C(F)(F)F)ccc3[nH]2)CC1	inactive: 45.3%
CC1=C(C(=O)O)N2C(=O)[C@@H](NC(=O)[C@H](N)c3ccccc3)[C@H]2SC1 [Cephalexin]	inactive: 42.4%
Nc1ccc(-c2ccc3ncc4ccc(=O)n(-c5cccc(C(F)(F)F)c5)c4c3c2)cn1 [Torin 2]	inactive: 45.7%
